Assay results: patent US20250177376A1, “ALPHA 2 ADRENERGIC RECEPTOR BLOCKADE FOR THE TREATMENT OF C. DIFFICILE COLITIS” (University of Virginia Patent Foundation, priority 2022, published 2025)

System: norepinephrine
Assay: Norepinephrine levels in cecal tissue of CDI mice
Conditions: 2 days post infection; 6-OHDA on days 8, 7 and 6 prior to infection
Procedure: To test the role of the sympathetic nervous system in C. difficile infection (CDI) disease progression, a mouse model of infection was employed. Prior to infection, mice are administered 6-hydroxydopamine (6-OHDA) to peripherally destroy sympathetic termini.

**Q.** For `NCCc1cc(O)c(O)cc1O` [6-OHDA, 6-hydroxydopamine], which “levels of norepinephrine in cecal tissue” value is on record?
**A.** appreciably reduced
